# More than one record can exist for a structure, and the calls need not agree.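 Each cell line was grown in a 96-well plate and treated with one concentration of compound for 48 hours. Values below 10 were considered active.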 Certain results were filed several times, with different values. They are shown here; other results are not. The source may hold further records. The screen tested this drug many times, at its own concentration, as given; one value stands for one run. Additions like (4×) say how often a value occurs here.
# Columns and labels:
# SN12C renal = assay: NCI-60 one-dose screen, 48 h (100 = growth as untreated, 0 = no growth, -100 = all killed); details: 2.5 mM
# UO-31 renal = assay: as above; details: 2.5 mM
smiles,measurement,setting,value
O=c1[nH]cc(F)c(=O)[nH]1,growth,SN12C renal; runs of 1992,"inactive: 32.2 (4×), 20.8, 32.3, 31.8 (3×), 33.9 (2×), 30.5 (3×), 22.2, 23.7 (2×), 25.9, 80.4, 17.1, 32.6 (2×), 36.7, 31.5, 31.6, 45.7, 63.6, 49, 36.9, 25.4, 48.9, 16.4 (2×), 32.9 (2×), 38.1, 17.2, 22.7, 27.6, 31.4 (3×), 34.6, 22.9, 27.2, 28.7, 43.7, 30.6 (2×), 28.2 (2×), 30.2 (3×), 31.9, 24.9, 32.5, 26.3, 21.2, 34.7, 39.4, 22.5, 11.9, 22.3, 23.3, 31.1, 28.4, 26.8, 28.5 (3×), 25, 32.8, 37.1, 15, 12.1, 34.3, 25.5, 61.9, 35.2, 23.1 (2×), 28.6, 24.8, 36.6, 12.5, 12.4, 21.5, 35.4, 28.1, 24.2, 10.4, 24.1, 37.9, 30.3, 31.3, 34.4, 39.3, 31.7, 48.3, 39.9, 33, 35.5, 43.8, 24.3, 38.7, 32.4, 67.5, 23.6, 40.5, 40.3% and active: 7.67, 0.225, 9.69, 6.82, 6.58%"
same,growth,SN12C renal; runs of 1993,"inactive: 33, 28.1, 29.1, 20.5, 37.2, 32.7 (2×), 35.7 (2×), 35.9, 32.3, 20.6, 26.1, 31.1, 36.8, 27.6, 38.2, 44, 30.4, 36.2, 25.8, 33.6, 32.4, 35.8, 41.4, 17.3, 33.8, 52.7, 29.8, 34.7, 12.5, 33.4, 40, 25.7, 43, 40.7, 49.4, 84.9, 38, 35.6, 39.5, 32, 26.3, 51.5, 26.9, 34.4, 35.5, 37.3%"
same,growth,SN12C renal; runs of 1994,"inactive: 31.5 (2×), 26.8 (2×), 13.2, 25.6, 31.1, 34.1, 19.8, 20.9, 30.9, 22, 15.1, 17.6, 34.6, 21, 34.5, 29.6, 26.7, 32.7, 26, 22.7, 33, 50.3, 22.8, 40.6, 34, 32.5, 31.9, 21.4, 53.6%"
same,growth,SN12C renal; runs of 1995,"inactive: 36.2, 32.4, 23.8, 12.4, 10.1, 32.8, 35.5, 14.1, 38.6, 27.7, 39.4 (3×), 23.6, 23.5, 33.3, 24.5, 17.7, 27.5 (2×), 31.2, 33.8, 19.1, 29, 39.8, 41.1, 27.4, 25.4, 36.6, 30.4, 20.6, 38.2, 30.5, 33.9, 38.5, 19, 30.8, 39.3, 34.1% and active: -22.2%"
same,growth,SN12C renal; runs of 1996,"inactive: 40.5, 38.8, 27.9, 32.4, 52, 21.3, 27.1, 20.5, 36.9, 25.5, 20.3, 47.8, 43.8, 29.8, 34.9, 20.7, 27.5 (2×), 45.4, 26.6, 28.8 (2×), 52.2, 46.9, 49.1, 24.9, 35.6, 47.7, 39.5, 24.5, 28.3, 33.1, 38.9, 30, 22.8, 34.8, 31.3, 41.5, 43.3, 29.6, 29.7, 26.2, 43.4, 32.5, 30.1, 19.2, 39.3, 24, 32.8, 58.2, 23.8, 35.1, 36.1, 31.9, 40% and active: -2.86%, -97.6%"
same,growth,SN12C renal; runs of 1997,"inactive: 33.4, 39.2, 30.9, 40.1, 47.4, 24.9, 11.6, 30.2, 22.1, 52.8, 27.7, 22.5, 59, 24.6, 29.7, 45, 20.1, 46.8, 33.7, 29.6, 22, 32.4, 62, 37.9 (2×), 23.9, 27.3, 53, 31.8, 40.7, 20.9, 23.5, 11.5, 37.7, 47.5, 27.1, 32.6, 34.7, 12.2% and active: -7.01%"
same,growth,SN12C renal; runs of 1998,"inactive: 30.9, 47.4, 36.5, 53, 40.6, 15.7, 19.6, 35.7, 30.3, 23.7, 32, 24.1, 35.8, 58.8, 21.4% and active: -27.3, -2.68, -3.71, -23.4%"
same,growth,SN12C renal; runs of 1999,"active: -68, -0.891, 3.6, -39.5, 1.88, 0.39, 0.562, 0.906, 0.627, -22, 3.14, -48.4, 2.25% and inactive: 25.6%, 31.5%, 21.9%"
same,growth,SN12C renal; runs of 2000,"active: -47.4, 2, 1.59, 1.3%"
same,growth,UO-31 renal; runs of 1991,"active: -74.4, -72.2, -76.7, -75.8, -73.7, -70.5, -83.4, -38.1, -68, -50.1, -48.8, -65.2, -48.3, -55.1, -60, -76.6, -49.5, -43.8, -55.6, -36.1%"
same,growth,UO-31 renal; runs of 1992,"active: -82.1, -55.8, -72.1, -21.3, -11.7, -31.9, -48.5, -60.6, -64.4 (3×), -63 (2×), -58.7, -75.3, -69.3, -52.5, -77.1, -71.5, -45.2 (2×), -68.7 (2×), -54.1, -83.2, -58.4, -59.8 (2×), -61.2, -72.4, -68, -48.9, -50, -45, -79.5, -74.1 (2×), -70, -45.7 (2×), -66.5, -45.4, -52.7 (2×), -54.7, -34.1, -64.2 (2×), -51.6, -65.2, -47.4, -47.9, -71.4, -53.5, -65.3, -61.9, -68.2, 5.94, -63.1, -43.9, -47.7, -46.6, -45.3, -58, -49, -57.2, 4.55, -60.5, -70.8, -48.6, -55.5, -47.8, -53.6, -25.1, -58.6, -7.03, 2.65, 1.32, -2.83, -55.9, -47.3, -60.7 (2×), -65.1, -68.6, -81.6, -72.3 (2×), -55.3, -87.2, -61, 8.55, -66.6, -73.7, 9.33, -61.4, -22.8, -74.8, -59.5, -57.8, -50.3, -55.1, -69.4, -84.7, -64, -10.4% and inactive: 42.8, 14.8, 13.9, 15.8, 15.7, 22.4, 15.2%"
same,growth,UO-31 renal; runs of 1993,"active: -29.4, -52.7, -49.2 (3×), -73, -34.3 (2×), -46.2, -20.6, -39.2, -56.6, -51.2, -66.2, -82.7, -81, -37.1, 2.31, -74.8, -71.4, -66.7, -63, -81.4, -70.2, -47.6, -42.6, -52.1, -83.6, -70.7, -90.4, -50.4, -30.9, 2.28, -82.1, -60.6, -75.3, -26.5, -36.8, -71, -40.5, -3.84, -53.3, -64.9, -22.8, -42.8% and inactive: 102%, 126%"
same,growth,UO-31 renal; runs of 1994,"active: -19.8, -33.7, 3.49, -11.1, -29.9, -64.8, -41.8, -69.7, -50.3, -22.7, 2.63, -27.2, -15.9, -36 (2×), -24.2, -25, -10.7, -29.1, 1.7, -50.9, -28.6, -50, -69.8, -75.3, -59.9, -78.7, -58.1, -22.3, -82.8, -73.7, -56.9, -40.1% and inactive: 12%"
same,growth,UO-31 renal; runs of 1995,"active: -31.6, -71.2, -63.8 (2×), -50, -57.1, -48.1, -83.4, -31.9, -41.5, -59.1, -48.6, -83.3, -63.5, -49.5, -56, -61.4, -71.1, -51.2, -59.6, -80.9, -69.8, -84.8, -10, -62.7, -79.8, -14.6, -21.1, -29.9, -66.6, -45.3, -65, -67.6, -72.1, -56.2, -37.3, -58.8, -40.5, -70.5, -69.9%"
same,growth,UO-31 renal; runs of 1996,"active: -22.9, -62.1, -63, -45.4, -56.7, -50.5 (2×), -44.2, -61.6, -81.7, -50, -14.4, -63.9, -73.4, -77.4, -22.8, -44.3, -72.5, -45.2 (2×), -18.1, -32.5 (2×), -53.7, -72, -63.6, -13.8, 4.41, -23.3, -9.48, -38.4, -28.5, -65, -73, -20.7, -54.9, 0.26, -32.8, -42.5, -57.7, -76.7, -31.3, 8.14, -40.4, 0.0686, -27.7, -71.6, -62.3, 9.28, -24.9, -41.8, -45.7, -66.1, -63.5, -36.6, -37.4, -54.8%"

# Reference: PubChem BioAssay (NCI)
